Assay results published in the supplement of paper PMC10126150.
Sequences with one replicate were seen in a single cluster, so their values are uncertain.

Test system: ATP
Assay: switch fluorescence ratio, 500 uM ATP over buffer (Cy3 cluster intensity, sum of 5 cycles each) (fold (ratio)); higher = stronger signal-on switching upon ATP binding; sequences stand for … in TCGTCGGCAGCGTCAGATGTGTATAAGAGACAGTTTTTTTTTTTTTTTTTTTTTTTTT…TC
Conditions: aptamer strand: ATP DNA aptamer (quencher-CACCTGGGGGAGTATTGCGGAGGAAGG + anchor), 100 nM annealed; ATP concentration: 500 uM; one replicate
Method in brief: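 Between each of five buffer/ATP cycles, the flow-cell was stripped with NaOH and re-annealed. Each cycle imaged Cy3-labelled switching-strand clusters, annealed to 100 nM quencher-labelled ATP aptamer on a modified Illumina MiSeq flow-cell, first in selection buffer and then after 15 min with 500 uM ATP at 22 °C. The fluorescence ratio is summed target-cycle over summed buffer-cycle Cy3 intensity per cluster, averaged per switch-domain sequence, with clusters outside 100-1000 RFU excluded.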
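Further: ATP exposure 15 min at 22 °C before imaging.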

Sequence	switch fluorescence ratio
TAAACATTAT	1.05
GGTGCCTG	1
CGGCTGAGCG	0.907
ATTTCGTGAA	1
ATGGCTAGCA	1.02
TGGGTAGAG	1
CTGACGAAC	3.1
ATGGAAATAC	1.15
TTGAAATGAT	1.02
GGAATTGCAG	0.982
ATTCATTCAC	1.05
ACGATTACAC	1.33
ACGTAGATCG	1
TGTGGCGC	0.98
CGGCGAGTAG	1.02
TCAGGTATCA	0.992
ATGCGTGAT	0.977
CGCAGGATT	1.11
GCGTCCGGGC	1.07
CATCGTGGTG	0.996
GTGGTAAGTA	0.938
TGCAGAACT	1.06
AACGAACTCG	1.14
AACGGTTAAT	0.958
GCAAGGTGGA	0.976
GACTCTAGCG	1.04

Sequence	switch fluorescence ratio
CGATGATG	1.02
CAAGACGGGA	0.976
GGGCTGAACT	1.01
CCTAGTTAAA	0.985
CGAACAGTTG	0.99
TGTGTTAACT	0.968
GTCTATGCTC	1.14
TCAGGTCCGG	1.02
AACGCCGCTT	1.26
TCGGGCCTTG	1.12
GCAGCGTAG	1
GACTTAACTA	1.05
TCTTATTATA	1.04
TTGTAGTGA	1
TTGTACTCAC	1.19
TTGTTGATG	0.963
GTGTTTACCC	1.02
GACTATGGGC	0.991
TCACGGGGAT	0.995
GTAAGAGG	0.982
CTAGCAGTTT	1.04
TTATTAGTAC	1.04
AAGGTCAGAA	0.96
TAACGCCG	1.11
TTAAAACTAC	1.06
AGTTTCATAA	1.03

Sequence	switch fluorescence ratio
GGCTCTCTAC	1.11
TTTGCTCTTC	1.02
TAAAGGCTAA	1.07
GGTACGGTTC	0.971
CTGCAGGGCC	1.09
TCGTGTACAA	1.06
TTTACCTTAC	2.19
TAGGCGGCAA	1.33
TAGTCATCAC	1.03
CATTTGTTCG	1.01
ATACACGGAT	1.03
GTTCCGGAAC	0.985
CTGGCGTCGG	1.01
TTGGTTTGT	0.979
AGTGTTGTTC	1.03
GATGGGTTGC	0.971
CGATGGCTTC	1.04
TTTAGGAA	0.995
GCACCATTTT	1.02
GCTAAAAGGT	0.965
TGCCCGAGGC	1.09
CCTAACCTAG	1.08
TGAGTAAATT	1.01
GATTCGTCTG	0.996
CTACGGTATA	1.39
CGACCGCGGT	1.06

Sequence	switch fluorescence ratio
AAACGTACAA	1.37
GTCGGAGGTT	0.996
AAGAACGGGG	1.03
AGATACGGA	1.08
GATTTCGTAA	0.987
TCGTCGGCCT	0.978
GTCACAGAA	1.04
AATATTGTAC	0.998
ACGGTGCGAT	1.08
CCTGATAGGG	0.972
ATAGAGTTGA	1.02
TACGTTGTTT	1.03
AAAGGCGGA	1.05
TACAGGTGTT	2.82
TCGCCTACTG	1.05
GAGCGGCAGT	1.02
GATGATTTGA	1
AATTATCGCT	1.05
TTGAGAATTA	0.976
ACGCTGCAAC	3.35
GATCTTTCCA	0.979
ATAACACGTA	1.21
CTTCTAGGGT	0.992
ACATGTCGAA	0.995
GCGTGCTTTG	1.03
TTGAGCCTTT	1.04

Sequence	switch fluorescence ratio
CGCAACTTTC	1.72
TGGGGCAAAA	0.993
CATGGTACC	0.979
CGAGATGCGG	0.996
CAGGTCGAC	0.979
CTGCGGCTAC	3.98
CGGATGTAAG	0.987
CATAATCTAA	0.992
TTGTATCTTA	0.963
CGTTTGGTA	0.962
TGGGTCTGGG	0.99
CTTTTATCTT	0.975
TCGGGTTCGC	1.01
GAGCCACTAC	1.65
CTTCGTTCGC	3.84
CGGTTTGGG	0.968
TTAGCTCACG	1.04
TCAGAGTCTA	1.03
CAAAAGCTTT	1.18
TGAACTTCGG	0.956
CTCCATCTTC	1.07
GGGAAGCGTC	0.95
GATTAGCAGG	1.03
ATCGGATCAC	1.01
CAGAATCACA	1.01
GCGTGTCGTG	1.01

Sequence	switch fluorescence ratio
AATTCCACTT	1.03
CGCTCCCATC	1.74
TTCTGCAATG	4.55
ACAGAGACGA	1.01
ATTATGAGGG	1.01
ATGATCTAAC	1.04
GTGTAGCATG	1.05
TGTACAGGG	1.01
AGCTAGTCGT	1
CATATATGCA	0.985
GGCTCGCACA	1.07
CATAGGTACG	1.05
GGTGCCATTA	1.02
ACGGTTCTCA	0.995
CGAGATAGTT	0.987
TTGTGATG	0.95
GGGTCAGAGT	1.01
GTCGGTACTG	1.01
TGCTACCCCC	1.81
CTCAGGCTGG	1.02
CGGTACCAGC	1.05
CCGTTTCCTG	0.968
GTGGTAGCCA	1.01
GGTCGTCGGG	1.06
TACAACTCGC	1.05
GCATCATTTT	1.01

Sequence	switch fluorescence ratio
CGGATGAACC	1.03
ACCACTTCCA	1.1
TCACCTAG	1.06
CAAATATCGA	0.995
ATGCAGAGTC	0.978
TGCCTTTAAT	1.03
CTAGAACGGG	1.01
CGTCATGGTT	0.996
GTGCAGTCA	1.02
CCGAGTCAGT	4.5
ATCTTTGAAT	1
TACATTGG	1.03
ATGATTAACG	1.01
AGTTTTGCTT	0.953
GGTTTAACAG	0.973
ATACCTTGA	0.988
ATAATTATAG	0.978
GATAGTTGGA	0.981
AAGGAATTTA	1.02
GACCTCTGGA	1.03
TTTTCCGGTG	1.14
CGCGAGAAGT	1.01
CGGAAATTAC	1.24
TAATCTTATA	0.981
GACATGGTCA	0.97
AAGTTTGTGC	0.959

Sequence	switch fluorescence ratio
AGAGCAAAAT	1.15
GCTCGTGCGG	0.993
GCGAAGAGGA	0.966
TCTGTTAACT	0.961
TGTGTGCTAA	1.05
GGGGTAACGC	1.06
GTTTTGCTTG	1.02
TACATTTTCT	0.986
AATGTCGCTT	1.01
GGCTGACATA	1.01
ATACGTCTCT	1.03
CTAAGCAAAC	2.68
ATGGCGGTCG	1.05
GGGACCTTGC	1.91
TCCGGGGAAT	1.14
GGGTGAACGC	1.07
CTGCTCACCG	1.05
ATAAAATGAC	1.07
ACGCCTCCTG	1.21
